Whole data set: some 33,000 sequences, median “E-score (-0.5 to 0.5)” near -0.04, cut for the highest 2% near 0.36. The list shows a part of the results.
biological target: T1, Hmlalpha2 (UniProt P0CY09); assay: PBM E-score (8-mer binding enrichment) (E-score (-0.5 to 0.5)); higher = stronger / more preferred TF binding; most listed sequences are background and not binding sites; details: protein concentration: 200 nM; construct: GST-full length
T1 sequence: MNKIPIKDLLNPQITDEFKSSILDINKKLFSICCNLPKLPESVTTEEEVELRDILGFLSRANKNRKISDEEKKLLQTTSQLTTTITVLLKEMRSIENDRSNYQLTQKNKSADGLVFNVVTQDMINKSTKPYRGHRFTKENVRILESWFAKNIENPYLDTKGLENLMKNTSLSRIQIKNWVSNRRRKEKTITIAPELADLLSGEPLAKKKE
Method: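 Universal 'all 10-mer' protein binding microarrays (Agilent AMADID 015681) probed with GST-tagged S. cerevisiae TFs (full-length or DBD) made by in vitro transcription/translation (PURExpress), about 100-200 nM. Bound TF was detected with fluorescent anti-GST. Each ungapped 8-mer (which stands for itself and its reverse complement) is scored by the PBM enrichment score (E-score), a modified Wilcoxon-Mann-Whitney statistic from -0.5 to +0.5, computed with the Universal PBM Analysis Suite. Scale: above 0.35 generally sequence-specific binding.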

Sequence	PBM E-score
GGCGGTTA	-0.055
CATCTGAA	-0.106
GAATCATC	0.0179
AGTCAGGC	-0.107
CGTCGTCA	-0.0343
TCGAACCA	0.03
AAAGCCGA	-0.183
CCTACCTA	-0.0766
CAGAGCCC	-0.153
CCGTGGGA	-0.352
GCGCCGAA	-0.106
CATGATCC	0.0754
ACCCAGCC	-0.272
TAGTTAAA	0.31
GGCGGTCA	-0.283
AACTCATG	0.146
GAGGGTCC	-0.374
AATTGCAG	-0.181
TACTCACA	0.165
CGTATGTA	0.356
ACGGCACG	0.079
CGAGCGAA	-0.199
CGTCGTAG	-0.125
GTCGAGAC	0.116
TTGCCCAA	-0.163

Sequence	PBM E-score
AGTCCGTG	-0.126
GGCGAGAA	-0.136
CCTTGACC	-0.13
CTGAACTA	0.0184
TAGTCAGA	-0.166
CGCCCATA	-0.264
GCCGTGTA	0.432
CACATAAA	0.259
ATTGATAC	0.129
GGTGTGAC	-0.193
CAACACTC	0.166
CATTCTCG	-0.0595
CCATGGGC	-0.283
ACTGTTGC	-0.0605
GCCGACCC	-0.295
AGCTAAGA	-0.0157
GAGTCAAA	0.0265
ACGTCATC	0.0076
GGAGAGGA	-0.331
AGCAAATC	0.0306
CCAATCCG	-0.27
AGGGTCAC	-0.246
TAAATGTA	0.38
GAGGGTTA	-0.00948
CCCCGCAC	-0.201

Sequence	PBM E-score
AATGTAAC	0.296
AAATCTCA	-0.0212
CAGAATAC	0.208
TGACCGCA	-0.0736
CTCGAAGA	-0.0921
ATCTAGAC	-0.0288
GTCTGAGA	-0.143
CATCTCAA	0.136
GACTTCCA	-0.332
CGAGTGAA	0.168
GAAATGTA	0.0891
CGTCTGCA	0.0591
CGCTCAGC	-0.144
AGATATGA	-0.0923
AAACGCCT	-0.0535
CAGATACG	-0.235
CCACGTCA	0.00927
GATCGTGA	-0.12
TGAATTCA	0.235
AGATGTTA	0.201
GGACATCA	-0.0127
AAAAAGTT	-0.0414
CATAGACG	0.176
ACGAACGT	0.084
AGGCCGGA	-0.196

Sequence	PBM E-score
GATACACC	0.0716
CGGAAACA	-0.0925
GAAGTCTC	-0.247
CGAGGGCC	-0.193
CAATAATC	-0.043
AAAGGAGG	-0.212
ATGATCAT	0.115
TGAGGTAA	0.085
ATGGGGTC	-0.125
CGTAAACC	0.182
TAGACCTA	0.0167
CGTCAAGA	-0.0534
GCGCGAGA	-0.0264
CTTCTTTC	-0.199
CTCGGATA	-0.0602
GCTTAAGC	0.187
ATCGCAAT	-0.097
CCTCTCGC	-0.213
TAATATTA	0.379
CCACATAA	-0.00586
CGGCGCAA	0.0253
ACGTCACT	-0.093
ATGCCCGA	-0.112
AGCATAGA	0.0108
GATTTGGC	-0.0812

Sequence	PBM E-score
CTCACTTC	-0.198
CCCATTTA	0.0398
CGACGATC	-0.0929
CACAAGCC	-0.00918
AACAGTGT	0.148
CGCGACAA	0.112
AGCCACAT	0.157
ACTGTAAT	0.251
ACGCCGTG	0.164
GTACAGGA	0.223
ATTCTCAC	0.0859
CTAGAGCA	-0.0807
ATCTACTC	0.00965
GCTATGCA	-0.0142
ACATGCGG	0.289
ATCGGAGG	-0.0907
AGTGGAGG	-0.281
AGAGACGC	-0.211
CGGTTGAA	0.102
GGGCACGA	-0.143
AAGAGCCG	-0.309
CGGTCCAC	-0.185
GCCCCGGC	-0.203
AGCTACTA	0.0524
GACTTATC	-0.301

Sequence	PBM E-score
CACTTGAC	0.0938
TAGAATGA	0.082
ACCAGTCC	-0.335
GTACTACA	0.369
ACTTTTTG	0.108
GAGGAATA	0.112
ATTAGGCC	-0.161
ATCCCGAG	-0.153
GCCGCGAC	-0.213
GGGCGACA	-0.118
AATCATCG	0.0275
AGAGAGAT	-0.0161
CCGCTTCA	-0.0577
ATGGGTTA	0.177
GGCCCGAA	-0.135
AGACCCAC	-0.157
GGTCCAAA	-0.126
ATTTTAGA	-0.0278
CAGACTTC	0.029
GCAGACAA	-0.0588
AGGAGGTA	-0.16
AGCACGCC	-0.177
AGGAACGA	-0.183
ATCTGCAA	-0.00902
ACTCAGCT	-0.074

Sequence	PBM E-score
CCGACTGC	-0.166
ACTCTCGC	-0.244
ACTGCGGA	-0.0818
ACCGCGCT	-0.0622
GATCGGGC	-0.245
CGCGAAGA	-0.0664
AGTTTCCC	-0.194
ACTTTTAA	0.0963
CCACGAGC	-0.115
AGATATGG	-0.132
AAAGCCAA	-0.0644
CCCTGAAA	0.0432
CCTGTAAA	0.328
GATCCTAA	-0.17
ATCTTTGG	-0.0184
CCAGAGGG	-0.323
CTCAACAA	0.302
ATTCGAGG	-0.205
GGCAGAAC	-0.103
CGGTTGGC	-0.124
CTTGGTAA	0.207
GAATCGTC	-0.121

Reference: the supplement of paper PMC3334620
